# In PubChem BioAssay AID686978 (National Center for Advancing Translational Sciences (NCATS), 2013):
# Values joined by “and” are separate entries in the source; they are usually repeats but may differ in a detail not shown here. Equal values may be shown once. About 64,000 (15%) of roughly 420,000 compounds were called active. Inconclusive means that the source gave no clear call. Such entries were picked first, then a sample of the others. Calls come from the whole dose curve; as a rule, active = well fitted inhibition curve with a large enough effect; inconclusive = small, poorly fitted or top-dose-only effect; inactive = flat fitted curve, though single readings scatter. Potencies of inconclusive entries are left out as doubtful fits.
# Assay: qHTS for Inhibitors of human tyrosyl-DNA phosphodiesterase 1 (TDP1): qHTS in cells in absence of CPT; note: nearly all actives have a fitted effect of over 55% in size
# Conditions: DT40 Tdp1-/- hTDP1 cells, no CPT, ATP luminescence, 48 h; activity change, negative = growth inhibition: at 46.2 µM (top of the series) unless noted
# Outline: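 DT40 Tdp1-/-;hTDP1 cells, no CPT (DMSO vehicle only), 400 cells/well; compounds pin-transferred; ≥48 hr, 37 °C; CellTiter-Glo 30 min RT dark, luminescence read.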
# % is set by controls: 0 for no effect and ±100 for the full control effect; potency is the fitted concentration of half-maximal effect; tags give direction and shape of the fitted curve.
Compound,Potency,"activity change, negative = growth inhibition"
CN1CCN(C(=O)c2ccc3c(c2)N(Cc2ccc(F)cc2)C(=O)c2ccccc2S3(=O)=O)CC1,inactive,–
CC(Cl)C(=O)c1c[nH]c2ccccc12 (stereo not drawn),inactive,–
Cc1cc(C)cc(OCC(=O)NNC(=O)CCC(=O)NCc2ccccc2)c1,inactive,–
O=C(NC1CCS(=O)(=O)C1)Oc1ccccc1 (stereo not drawn),active: 25.9 µM,–
Cc1nn2c(c1-c1ccccc1)NC1=C(C(=O)CCC1)C2c1ccccc1 (stereo not drawn),inactive,–
COc1ccccc1N1CCN(CC(O)COc2ccc(Cl)c(C)c2)CC1 (stereo not drawn),"inconclusive [inhibitor, single point]",–
CC(=O)C[C@@H]1OC[C@H](Cc2ccccc2)N1S(=O)(=O)c1ccc(C)cc1,"inconclusive [inhibitor, single point]",–
COCCCNC(=O)c1cc(=O)n(Cc2ccc(Cl)cc2)c2ccccc12,"inconclusive [inhibitor, single point]",–
CCSc1nc2nccnc2c(=O)[nH]1,inactive,–
O=C1CCCc2oc3c(cc(NS(=O)(=O)c4ccc5c6c(cccc46)C(=O)N5)c4ccccc43)c21,"inconclusive [inhibitor, single point]",–
CC(=O)COc1ccc2c(-c3cccc([N+](=O)[O-])c3)cc(=O)oc2c1,active: 23.1 µM,–
CCOC(=O)c1cc(S(=O)(=O)Nc2ccccc2)[nH]n1,inactive,–
O=C(CSc1n[nH]c(-c2ccc(F)cc2)n1)N1CCN(c2ccc(F)cc2)CC1,active: 23.1 µM,–
CC(=O)C1=C(C)NC(SCc2cccc([N+](=O)[O-])c2)=C(C#N)C1c1ccco1 (stereo not drawn),"inconclusive [inhibitor, single point]",–
COC(=O)c1cc(NC(=O)c2ccccc2)c(=O)oc1/C=C/Nc1ccc(Oc2ccccc2)cc1,active: 23.1 µM,–
O=C(CN1CCOCC1)N/N=C/c1cc2ccccc2nc1Cl,"inconclusive [inhibitor, partial curve, poor fit]",–
Cc1cccc(N2CCN(C(=O)NCc3ccc(Cl)cc3)CC2)c1,active: 20.6 µM,–
COc1ccc(-c2noc(N3CCC(C(=O)NCc4ccc(Cl)cc4)CC3)n2)cc1,"inconclusive [inhibitor, full curve]",–
CCS(=O)(=O)n1nc(-c2ccc(Cl)cc2)nc1SCc1ccccc1,"inconclusive [inhibitor, partial curve]",–
O=C(CSC1=Nc2ccccc2N=C(c2ccc(F)cc2)C1)Nc1ccc(Cl)cc1,active: 25.9 µM,–
CC(=O)Nc1ccc(NC(=O)c2cc(-c3cccs3)on2)cc1,"inconclusive [inhibitor, partial curve]",–
O=C(CNC1CCCC1)Nc1ccc(S(=O)(=O)N2CCCCC2)cc1,"inconclusive [inhibitor, partial curve]",–
CCOC(=O)c1c(C)[nH]c(C)c1C(=O)COC(=O)c1ccccc1O,"inconclusive [inhibitor, partial curve]",–
O=C(Nc1ccc(N2CCOCC2)c(F)c1)c1cccs1,inactive,–
Cc1oc(-c2cccs2)nc1CN1CCN(CC(C)C)C(CCO)C1 (stereo not drawn),"inconclusive [inhibitor, single point]",–

Compound,Potency,"activity change, negative = growth inhibition"
COc1ccc(OC)c(NC(=O)Cn2c(=O)n(Cc3nc(C)no3)c(=O)c3ccccc32)c1,inactive,–
COc1ccc(C(=O)/C=C/c2ccccc2OC)c(OC(=O)c2ccc([N+](=O)[O-])cc2)c1,"inconclusive [inhibitor, single point]",–
CC(C)(C)OC(=O)NCc1ccc(CNC(=O)c2[nH]cnc2C(=O)NCC(=O)OCc2ccccc2)cc1,"inconclusive [inhibitor, partial curve, poor fit]",–
COC(=O)N[C@H](c1ccccc1)[C@@]1(C)C[C@@H]1[C@@H](C)C(=O)Nc1ccc2ccccc2c1,–,inconclusive: -35.1% [inhibitor]
COc1ccccc1OCC(=O)Nc1ccc(S(=O)(=O)Nc2nccs2)cc1,inactive,–
Cc1cccc2c(SCC(N)=O)nc(-c3ccccc3)nc12,inactive,–
CN(Cc1ccc(F)cc1)C(=O)C(Cc1ccccc1)NC(=O)c1ccccc1 (stereo not drawn),active: 18.4 µM,–
CCOC(=O)N1CCN(C(=O)COC(=O)C2CCN(S(=O)(=O)c3c(C)c(C)cc(C)c3C)CC2)CC1,"inconclusive [inhibitor, single point]",–
Cn1c(=O)c2c(O)c(C=Nc3ccc(F)cc3)c(=O)n(C)c2n(C)c1=O,inactive,–
COc1ccc(Nc2ncnc3onc(C)c23)c(OC)c1,inactive,–
CC(O)C1CCC2C3CC[C@H]4CC(O)CCC4(C)C3CC3(OCCO3)C12C (stereo partly drawn),active: 20.6 µM,–
OC(CNCCc1ccccc1)COc1ccc(OCC(O)CNCCc2ccccc2)cc1 (stereo not drawn),active: 16.4 µM,–
CCNC(=O)COc1ccc(F)cc1C(=O)c1cnn(-c2ccccc2)c1,"inconclusive [inhibitor, partial curve, poor fit]",–
COCCN(C(=O)CSc1nnc(-c2ccccc2C)n1C)c1c(N)n(Cc2ccccc2)c(=O)[nH]c1=O,inactive,–
CC(C)NC(=O)C1CCN(C(=O)c2cc3sccc3n2Cc2ccc(F)cc2)CC1,active: 7.31 µM,–
COc1ccc(C2c3c(ncn(CCCO)c3=N)Oc3ccc4ccccc4c32)cc1 (stereo not drawn),active: 14.6 µM,–
S=c1[nH]nc(-c2ccn[nH]2)n1-c1ccccc1Cl,inactive,–
CCOc1ccc(S(=O)(=O)N2CCC(C(=O)N3CCCCCC3)CC2)cc1Cl,"inconclusive [inhibitor, single point]",–
N#CC1=C(SCC(=O)Nc2ccccc2)NC(=O)CC1c1ccco1 (stereo not drawn),active: 18.4 µM,–
COc1ccc([C@H]2CN(c3ccc(OC)cc3)C(=O)[C@@H]2CC(=O)Nc2ccc(Br)cc2)cc1,"inconclusive [inhibitor, single point]",–
Cc1c(-c2ccccc2)nc2ccccc2c1C(=O)OCC(=O)Nc1ncc(C(F)(F)F)cc1Cl,"inconclusive [inhibitor, single point]",–
CCN(C[C@H]1N[C@@](CC)(C(=O)OC)[C@H]2C(=O)N(Cc3ccccc3)C(=O)[C@@H]12)C(=O)c1ccc(F)cc1,"inconclusive [inhibitor, single point]",–
COc1ccc(/C=N/NC(=O)CNc2n[nH]c(=O)[nH]c2=O)cc1OC,"inconclusive [inhibitor, full curve, poor fit]",–
COC(=O)[C@]1(C)N[C@H](CN(C)C(C)=O)[C@@H]2C(=O)N(Cc3ccccc3)C(=O)[C@@H]21,inactive,–
Cn1cccc1/C=N\NC(=O)c1cncc(Br)c1,inactive,–

Compound,Potency,"activity change, negative = growth inhibition"
S=c1[nH]nc(COc2ccccc2)n1/N=C/c1ccc(Br)cc1,"inconclusive [inhibitor, single point]",–
COc1cc(C(c2sc3nc(C)nn3c2O)N2CCC3(CC2)OCCO3)cc(OC)c1OC (stereo not drawn),active: 16.4 µM,–
COCCNC(=S)Nc1ccccn1,inactive,–
CCCCCCCCCCCCCCCCn1cc[n+](C)c1,active: 13 nM and active: 461 nM,–
COc1cc(OC)c(OC)cc1CN1CCN(c2ccc(F)cc2)CC1,"inconclusive [inhibitor, single point]",–
CCOc1ccc(C(=O)OCC(=O)N(Cc2ccccc2)Cc2ccccc2)cc1OC,"inconclusive [inhibitor, single point]",–
Clc1nc2ccccc2cc1-c1nnn(-c2ccccc2Br)n1,"inconclusive [inhibitor, single point]",–
COc1cc(NC(=O)C2Cc3ccccc3CN2S(C)(=O)=O)cc(OC)c1 (stereo not drawn),–,inconclusive: -32.6% [inhibitor]
O=C(Cc1cccs1)Nc1ccc(Cl)cc1,"inconclusive [inhibitor, single point]",–
COc1ccc(-c2cc(C)no2)cc1S(=O)(=O)NC1CCC(C)CC1 (stereo not drawn),"inconclusive [inhibitor, single point]",–
O=C(Cc1ccc(-n2cccc2)cc1)N1CCN(c2ccccc2F)CC1,"inconclusive [inhibitor, single point]",–
Cc1cccc(N2CCN(C(=O)Cn3ncc4c([nH]c5ccccc54)c3=O)CC2C)c1 (stereo not drawn),active: 14.6 µM,–
CCc1nc2c(OCC(=O)C(C)(C)C)cccn2c1N(C)C(=O)c1ccco1,inactive,–
COCCCNC(=O)C1CC(=O)N(Cc2ccc(OC)cc2)C1 (stereo not drawn),inactive,–
CCOc1ccc(NC(=O)c2cc(C)nc3c2c(C)nn3-c2cccc(F)c2)cc1,"inconclusive [inhibitor, single point]",–
COc1ccc(-c2cc(OC)c3c(C)oc(C)c3c(=O)c2)cc1OC,"inconclusive [inhibitor, single point]",–
Cc1ccc(NC(=O)C2CCCN2S(=O)(=O)c2ccc3c(c2)C(C)(C)C(=O)N3C)cc1 (stereo not drawn),"inconclusive [inhibitor, single point]",–
CCCCN(CC)C(=O)c1ccc2c(c1)OCO2,inactive,–
COCCN(Cc1cc2cc(C)cc(C)c2nc1Cl)C(=O)Nc1ccccc1,active: 3.26 µM,–
Cc1cccc(CC(=O)NCCS(=O)(=O)N2CCN(c3ccccc3)CC2)c1,"inconclusive [inhibitor, single point]",–
O=C(Cn1cnc2c(cnn2-c2ccc(F)cc2)c1=O)OCc1ccccc1,inactive,–
Cc1ccc(S(=O)(=O)c2nc(-c3ccco3)oc2SCc2ccc(F)cc2)cc1,"inconclusive [inhibitor, single point]",–
COc1cc(Cl)ccc1OCc1cc(C(=O)N[C@H]2CCCCNC2=O)no1,inactive,–
